Laboratory results as given in article PMC4336329 (PLoS ONE, 2015).
About 2,200 (0.71%) of roughly 310,000 compounds showed an effect of 50% or more. Effects have a minus sign here. Some of the results follow.

Molecular target: human ether-à-go-go-related gene (hERG) potassium channel (human, UniProt Q12809)
Assay: primary screen, population patch clamp on CHO cells stably expressing hERG

human ether-à-go-go-related gene (hERG) potassium channel, sequence (Q12809 whole entry, looked up): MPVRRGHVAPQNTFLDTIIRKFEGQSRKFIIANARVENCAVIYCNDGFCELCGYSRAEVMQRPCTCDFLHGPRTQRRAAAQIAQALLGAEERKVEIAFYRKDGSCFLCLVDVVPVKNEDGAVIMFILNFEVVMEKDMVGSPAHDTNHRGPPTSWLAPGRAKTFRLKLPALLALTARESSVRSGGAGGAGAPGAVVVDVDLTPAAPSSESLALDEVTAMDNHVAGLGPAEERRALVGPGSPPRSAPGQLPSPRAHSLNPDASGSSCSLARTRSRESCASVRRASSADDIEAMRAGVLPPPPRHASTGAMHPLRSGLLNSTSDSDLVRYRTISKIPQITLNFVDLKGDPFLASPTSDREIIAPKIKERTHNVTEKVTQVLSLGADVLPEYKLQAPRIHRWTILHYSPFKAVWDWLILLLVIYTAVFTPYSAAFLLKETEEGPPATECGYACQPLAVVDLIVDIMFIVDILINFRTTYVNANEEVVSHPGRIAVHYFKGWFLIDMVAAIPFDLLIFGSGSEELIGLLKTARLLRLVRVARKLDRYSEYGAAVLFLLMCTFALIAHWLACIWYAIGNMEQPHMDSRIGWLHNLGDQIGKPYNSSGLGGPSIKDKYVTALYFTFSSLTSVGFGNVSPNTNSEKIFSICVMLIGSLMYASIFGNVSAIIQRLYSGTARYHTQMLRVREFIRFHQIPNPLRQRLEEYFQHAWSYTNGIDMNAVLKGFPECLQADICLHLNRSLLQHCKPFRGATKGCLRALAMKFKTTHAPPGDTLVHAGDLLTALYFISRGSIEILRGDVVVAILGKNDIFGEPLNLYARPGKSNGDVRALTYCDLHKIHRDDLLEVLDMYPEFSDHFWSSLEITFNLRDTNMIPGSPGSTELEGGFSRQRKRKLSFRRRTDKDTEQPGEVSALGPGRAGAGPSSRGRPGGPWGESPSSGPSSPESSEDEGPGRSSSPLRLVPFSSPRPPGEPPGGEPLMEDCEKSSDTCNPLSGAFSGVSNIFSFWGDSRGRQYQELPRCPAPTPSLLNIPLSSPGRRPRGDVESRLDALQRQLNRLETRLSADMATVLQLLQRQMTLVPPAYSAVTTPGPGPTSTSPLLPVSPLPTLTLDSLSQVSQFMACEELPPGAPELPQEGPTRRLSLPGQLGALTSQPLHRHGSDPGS

SMILES	hERG current change (%, negative = inhibition) at 1uM [%]
CCCCNC(=NCc1cccc(C(F)(F)F)c1)Nc1ccccc1	5.43
COc1cc2c(cc1NC(=O)Nc1cccc(C)c1)oc1ccccc12	6.35
CCC(CC)C(=O)OCC(=O)Nc1cccc(S(=O)(=O)N(C)c2ccccc2)c1	11.5
COc1cc(/C=C2/C(=N)N3C=CSC3=NC2=O)ccc1OCCCOc1ccccc1C	13
Cc1ccc(C(C)C)cc1S(=O)(=O)NC1CC(C)(C)NC(C)(C)C1	0.807
OCCN(Cc1ccccc1)CC1CC2C=CC1C2 (centres unmarked)	-8.4
O=C(Cn1cncn1)NCc1ccc(Cl)cc1	10.2
O=c1[nH]c(=S)n(C2CCCCC2)c(O)c1/C=N/N1CCOCC1	1.45
O=C(C1CCOCC1)N1CCC(CO)(CCc2ccccc2)CC1	6.45
Cc1[nH]c2ccccc2c1/C=C(/C#N)C(=O)NC(C)C	7.69
CCC(NC(=O)C1(C)CC1(Br)Br)c1ccc(C)cc1 (centres unmarked)	7.95
CC(=O)N1CCc2cc(S(=O)(=O)Nc3ccccc3N3CCN(C)CC3)ccc21	3.13
Nc1nc(-c2ccccc2)cc(N2CCCCC2)n1	-8.1
c1ccc(Cc2noc(CN3CCCC(CN4CCOCC4)C3)n2)cc1 (centres unmarked)	5.86
CCOc1ccc(CCNC(=O)C(C)n2nc(C)n3c(cc4occc43)c2=O)cc1OCC (centres unmarked)	10.1
CC(C)CC(=O)Nc1ccccc1N1CCN(C(=O)c2ccccc2)CC1	6.21
O=C(OCC1COc2ccccc2O1)c1ccccc1F (centres unmarked)	1.69
Cc1nn(C)c(Cl)c1C(=O)NCC(=O)Nc1ccc(C(C)C)cc1	5.2
CCCC(=O)Nc1cc(C)c(NC(=O)c2ccco2)cn1	13.7
CC(/C=C/c1ccccc1F)=N\NC(=O)c1cccc(F)c1	13.5
CC(C)(C)c1ccc(OCCC(=O)OCC(=O)Nc2cccnc2Cl)cc1	1.82
C=CCn1c(SCC(=O)NC2CCCC2)nnc1-c1ccncc1	15.3
C=CCOc1nc(N2CCCC2)nc(N2CCCC2)n1	16.1
CCOc1ccc(CCNC(=O)CS(=O)Cc2nc(-c3ccc(C)cc3)oc2C)cc1OCC (centres unmarked)	9.3
CCN(CC(=O)NCc1ccc(Cl)cc1)C(=O)Cc1ccc(OC)cc1	-66.9
NS(=O)(=O)c1ccc(CCNC(=O)CSc2cccs2)cc1	10.6
